# Results as given in the supplement of paper PMC11417369.
# This is one part of the list.
# System: PfHDP1 homeodomain (GST-tagged)
# Assay: gcPBM binding intensity (ln(normalized median fluorescence intensity)); higher = stronger DNA binding
# Outline: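 For binding intensity, the highest Masliner-normalised natural-log median intensity across replicate spots of either probe orientation was taken. Protein bound to the array was stained with Alexa488 anti-GST antibody and scanned at 488 nm. The protein, GST-tagged P. falciparum DNA-binding domains from E. coli at about 25 μg on average, had been applied for 1 h to an Agilent 4 × 180k array of primer-extended double-stranded 36-bp intergenic genomic probes and negative controls.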
row,Sequence,gcPBM binding intensity (ln)
1,TAAATTTAGAAACACACACACATATATATATATATA [CACACA_site847],9.36
2,TTTATATTATTTTAAACATGCACAAGTATAATTTAT [TGCATGCA_site233],8.55
3,CAAAATAAAAATAACACACACATTTATATATATACA [CACACA_site1190],6.73
4,TTTTTAATTATCTTTTCCCATGGTTTCTCCGTTTTT [XGTACX_negctrl_site39],6.74
5,ATTTCTCAATCTTAATGTACAAAAAAAAGGAAAAAG [XGTACX_site1210],6.37
6,AGCATATTATCATATTGTACATATTATAATATATAT [XGTACX_site3907],6.43
7,ATATGTTTTGTTTACGTGCACTGCTTTGTTTATATA [GTGCAC_site9622],10
8,AGCAAATCAGATAGTAGTACATTTAAATTAGACTTT [XGTACX_site4172],6.26
9,TAAAAATTTTAATAAACACACAATGAGATATTGAAT [CACACA_site5704],6.31
10,CATGTATTTTATATTACACACTAATATTATAGATAT [CACACA_site6819],6.54
11,TTTTTTTTTTTGTTTAAACACACGAGCTTTCTTCTT [CACACA_site4085],6.37
12,AAACATATAAACATATGTACATATAAACATATATAC [XGTACX_site5026],6.46
13,TTTTTAAAACATCACTGTACCCGTTATGGTGAACAT [XGTACX_site3483],6.32
14,TAAAACATAAGAGACACACACACATATATATATATA [CACACA_site3643],9.37
15,ATATTCTTTTTATGTGGTACTAATTTTTTTTTTTTA [XGTACX_site3791],6.29
16,TTTTTAAATAATTGAAGTACACATTTCTCTAAGTTG [XGTACX_site2846],6.08
17,AGTAAAAGAAAGCACACACACATGTATATAGGTATG [CACACA_site7759],6.77
18,ATCATCCAAGATCTTACACACATATTAAATAAATAA [CACACA_site1473],6.66
19,TTTTATTTTTTTAAATGTACACATATTAATGTAAGG [XGTACX_site319],6.41
20,ATCATGTTATATACATGTACATATATATATATATAA [XGTACX_site609],6.87
21,ATGTAAATATATATATGTACTAATTAGTAGTTTACG [XGTACX_site6271],7.18
22,TTACATAATTTCTGCTGTACCAATTTTGAGAAGTTG [XGTACX_site4023],6.35

row,Sequence,gcPBM binding intensity (ln)
1,ATCTTAACTCTATGCACACATAAAAGTATATAAATA [CACACA_site2256],9.98
2,CATACATACATACATACACACATACAGATATATATA [CACACA_site4890],7.43
3,TTTTATAAATTATAATTCTATTATCTGTTCTTTTTA [TGCATGCA_negctrl_site487],6.39
4,TCCTTATTACTTTTTTAAGTCGTAATGAAAGAAAAA [CACACA_negctrl_site1497],6.15
5,TATATATATATATGTGCATGTAATGATTCAGCATCT [TGCATGCA_site803],9.5
6,AACACAGATAAATTAACACACACACCCATATATATA [CACACA_site9310],7.11
7,CACATATAGTTATATGCACACATCTTACACATCTAT [CACACA_site5937],10.2
8,TTGAACTCTCTTACGCGTACGTGTTATTATGAAAAT [XGTACX_site6265],6.73
9,CAATTTGGGGTGTACACACACCTTATTTAAATTAAA [CACACA_site6663],6.74
10,ATGAAATATCGGAACGCACACATAAATATATTTATA [CACACA_site2670],6.93
11,TAGCTTATTAATATCATACACACATAGATATATTTA [CACACA_site3105],6.34
12,ATATCTTATTTTCCTTGTACTTATTTCATAATTACA [XGTACX_site3894],6.81
13,TATTAAATATTGTAATGTACATATATAATATAATAT [XGTACX_site1809],6.63
14,AATGTCATGATACATACACACACATACACATACACA [CACACA_site8665],6.98
15,TAAATATGTATAAATTGTACAAAATATATGAATAGT [XGTACX_site5659],6.94
16,AATTTCCCATATTACACACATACTATGATATATAAA [CACACA_site3834],6.97
17,CAATAAACCATTTTTTGTACATAAAAATAGGTATTG [XGTACX_site1892],6.29
18,TTTTTTTTTTTAAATTGTACTTATTTTATATTATAT [XGTACX_site1077],6.08
19,AGAAAAATTATATATACACACTTATATTTATATATA [CACACA_site5555],6.3
20,TACGTTCTGATATATACACACCTGGTATTAATTATG [CACACA_site7113],6.76
21,TATTATATTTATATTTGTACTTAAAATATTATACAC [XGTACX_site2881],6.42
22,AGTATACGCAAACACACACACACAAAAAAAAAAAAA [CACACA_site426],6.52

row,Sequence,gcPBM binding intensity (ln)
1,AAATAAGAAAATCATAGTACATAGGAATAGAAGAAC [XGTACX_site3135],7.49
2,TTAAAAAAAGAAAAAAAAAAAAAAAAAAAAAAACAT [CACACA_negctrl_site475],6.21
3,TATAAAAATATTTCTACACACATTAATATTTATATA [CACACA_site6661],6.66
4,TATTATATTCTGCTTACACACATATATATATATATA [CACACA_site3060],9.28
5,GTTCTAAATATTATTGCATGTTGCACGTTTCTCTGT [TGCATGCA_site159],8.26
6,GTGATAATTGCTTGGTGTACCCACATATATATATAT [XGTACX_site1636],9.06
7,CATACACCCATACATACACACATACATATATATATA [CACACA_site8591],8.98
8,ATATAATGTTTCACATGTACAAACAACACAAAAAAA [XGTACX_site1899],6.99
9,AATTATGAAAAATCAAGTACAAACAAAATCATAATT [XGTACX_site5665],6.83
10,AAAGAGAAATTTAAATGTACATTTGTTCTAAGTGTA [XGTACX_site3602],6.34
11,AAAAGATATATTATATGTACTAATTATATGATAAAT [XGTACX_site4192],6.32
12,TATAATAATAATAATAGTACGTATTATTAAAAAACT [XGTACX_site10],6.58
13,ATATTACACATATATGCACACATTGTAGTTATTTAT [CACACA_site8843],8.92
14,CAATTACAAAAGAAATGTACTCGTAATAAATAAATA [XGTACX_site1126],6.67
15,TGAAATTTTTATACATGTACAAAATTAAATATAACA [XGTACX_site7324],6.45
16,TTTGTTCATATTATTGTGCACTTAAACGTAACAAAA [GTGCAC_site9505],10.1
17,ACCCTATATGTAACTACACACCGCATATTGTTTACT [CACACA_site3071],7.22
18,TTTATATTCTTAAGTGTGCACTATATATATATATAT [GTGCAC_site9719],10.5
19,AATGTAGCATTTTATCGTACACTTAATACAAAAAAG [XGTACX_site6214],6.56
20,ATGTATGTATATACTTGTACATATTCATATTAGTAT [XGTACX_site1118],6.26
21,TAATAAGTAAAAAAATGTACCCGTTAGGTTTAATAA [XGTACX_site638],6.01
22,AAAATAATATTTAATACACACACCAGTTCTGCAAAT [CACACA_site3736],7.06

row,Sequence,gcPBM binding intensity (ln)
1,ACAAAAAGGTAATTTACACACTGCATATAGGAATAA [CACACA_site2929],6.92
2,AGAAATATATATATATATATATGTGACAATATTTGT [TGCATGCA_negctrl_site282],7.02
3,TTTTTCTCTCTCTTATTATACAACAACAAAAAAAAA [GTGCAC_negctrl_site178],6.41
4,TTTTTTTATTTTATTTTATTATCTTATGTATCACAA [CACACA_negctrl_site1755],6.48
5,AAAAATAAAATATATACATGCATATACATATTATAT [TGCATGCA_site668],6.31
6,TGTTATATTTAATATAGTACATATTATTTTATATAT [XGTACX_site70],6.42
7,TATTCTATATTTCTATTTAGAAAACATCCCAGTGTG [GTGCAC_negctrl_site184],6.26
8,ATGTATATAATAAGAACACACATATATTTAATTTAA [CACACA_site2941],6.16
9,ATACATATATACATACGTACTTATATACATATGTGC [XGTACX_site5268],6.49
10,AGAAAATTAAAAAGAACACACAAATATATATAGAAT [CACACA_site3592],6.91
11,ATTTATATGCACCATTGTACGTTTTATAAAGTTTGG [XGTACX_site3755],10.5
12,TATCATGTCTGTATTTCACACACGGATAATCATTTA [CACACA_site920],6.14
13,TAAGTTCACAAAAAAAAAAAAAAATAAAGAAATAAA [CACACA_negctrl_site825],6.06
14,AAATTATTTCCGTGTACACATAAATATATATTTTAT [CACACA_site5121],7.18
15,TTATTATGCTGAGTACGTACTTATATAAGAATAGCA [XGTACX_site2955],6.88
16,TAAAATATTACGTGTACACATAAATAAAAATAAAAA [CACACA_site5066],7.77
17,TTTTATATTCCACAAAAAATTATATAATAATAGAAC [CACACA_negctrl_site1741],6.79
18,ATGCTTTTATAAATAATTAAAAAAAAAAAAAAAAAA [TGCATGCA_negctrl_site533],6.15
19,CTCAAATAATTTTTTACACACATTATTTGAAATAAG [CACACA_site1290],6.51
20,TTTTTTTTTAATATTTGTACACAACATGAAACATTT [XGTACX_site473],6.72
21,GTAATATATACAAAATGTACAAAACAATAACATGAT [XGTACX_site8575],6.79
22,ATCCAAACAAATAAAACATGCATAATATATATATAT [TGCATGCA_site766],8.76
